Out of some 48,000 compounds screened, about 450 (0.94%) were called active. Roughly 19% stayed inconclusive and do not appear here. Calls follow the shape of the dose curve; as a rule, active = well fitted inhibition curve with a large enough effect; inconclusive = small, poorly fitted or top-dose-only effect; inactive = no such curve, though single readings can be large or run the other way. This is one part of the list.
Assay: Primary qHTS for Identification of Small Molecule Inhibitors of Huntingtin Promoter Activity; also: nearly all actives have a fitted effect of over 50% in size
Conditions: HEK293 HTT promoter firefly luciferase reporter (activity 0% = vehicle and -100% = no light), 24 h; series mostly up to 57.5 µM; activity change, negative = inhibition: at the top concentration
Summary of the method: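 Firefly luciferase readout (Dual-Glo, 10 min RT) after 24 h, 37 °C compound exposure (final up to 57.5 uM) of HEK293 reporter cells cultured 24 h beforehand; PTC124 at 50 uM final as control inhibitor; activity scaled vehicle 0%, zero RLU -100%.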

Activity change, negative = inhibition, inactive:
N#Cc1ccc(C(c2ccc(C#N)cc2)n2cncn2)cc1 -13.5%, CCOC(=O)c1cc2c(=O)n3ccccc3nc2n(CC(C)C)c1=NC(=O)c1c(-c2c(F)cccc2Cl)noc1C -4.81%, CCCN(C(=O)c1noc2c1COc1ccc(C)cc1-2)c1ccc(Cl)c(Cl)c1 -13.8%, COC(=O)c1ccccc1NC(=O)c1c(NC(=O)c2ccco2)sc2c1CCC(C(C)(C)C)C2 (stereo not given) -29.1% [at 11.5 µM], COc1ccc(Cn2c(C(=O)O)c(CNCCc3cccs3)c3ccc(C)cc32)cc1 -19.5%, COc1ccccc1CNC(=O)c1ccc2c(c1)N(Cc1cccc(Cl)c1)C(=O)c1ccccc1S2(=O)=O -11.6%, Cc1ccc(Cn2c(C(=O)O)c(CNC3CCCCCC3)c3ccc(C)cc32)cc1 -2.9%, CC(=O)c1ccc(NC(=O)Cn2c(=O)c3cccn3c3ccccc32)cc1 -7.06%, Cc1ccc(NC(=O)Cn2c(=O)n(CCC(=O)N3CCc4ccccc4C3)c(=O)c3ccccc32)cc1 -9.59%, Cc1oc2ncn(CC(C)C)c(=O)c2c1C(=O)Nc1cc(F)ccc1F 0%, COc1ccc(-n2nc3c(N4CCCC(C(=O)NCc5cccc(F)c5)C4)nnc(C)c3c2C)cc1 (stereo not given) -29%, O=C(NN1CCCC1)NS(=O)(=O)c1ccc(Cl)cc1 0.893%, Cc1ccc(C)c(OCCn2cc(C(=O)c3ccco3)c3ccccc32)c1 -3.04%, CCn1c(CNC(=O)C23CC4CC(CC(C4)C2)C3)nnc1SCC(=O)Nc1ccccc1 -23.3%, COc1c2occc2cc2ccc(=O)oc12, Cc1oc2ncn(C)c(=O)c2c1C(=O)N1CCN(c2ccccc2)CC1 28.4%, O=C(Oc1ccc(F)cc1)c1nc(SCc2ccccc2F)ncc1Cl -5.58%, COc1ccccc1C(=O)NC1(C(F)(F)F)C(=O)Nc2c1c(=O)[nH]c(=O)n2-c1ccccc1 (stereo not given) -6.68%, Cn1c(=O)c2c([nH]c(=O)n2Cc2ccc(Cl)cc2Cl)n(C)c1=O -2.19%, Cc1ccc2c(c1)-c1nc(-c3ccc4c(c3)NC(=O)CO4)cc(-c3ccc(Cl)cc3)c1CO2 -11.4%, COc1ccc2c(OCc3nnc4ccc(-c5ccccc5)nn34)ccnc2c1 -1.48%, Cc1ccc2nc(N3CCN(C(=O)C4CC4)CC3)sc2c1 43.7%, CC1CCCN(CCCNC(=O)c2cn(C)c3ccc(S(=O)(=O)N(C)C4CCCCC4)cc3c2=O)C1 (stereo not given) -20% [at 11.5 µM], CC1=C(C(=O)N2CCN(c3cccc(C(F)(F)F)c3)CC2)C2(CCCCC2)OC1=O -10.1%, CCOC(=O)c1ccccc1NC(=O)c1cc2c(=O)oc3ccc(C)cc3c2s1 -7.98%, COc1ccccc1CNC(=O)CN1C(=O)CSc2ccc(S(=O)(=O)N3CCCCC3)cc21 -13.5%, CCN(c1ccccc1)c1ncnc2c1cnn2-c1ccc(C)cc1C 16%, Cc1ccc(NC(=O)Cn2cc3c(n2)CCCCC3)cc1 -8.56%, O=C(Nc1ccc(Cl)cc1Cl)c1cc(S(=O)(=O)N2CCc3ccccc32)ccc1F -18.7%, CCOC(=O)c1noc2nc(C)n(CC(=O)Nc3ccccc3F)c(=O)c12 -8.75%, CCOc1ccc(CNC(=O)CSc2nnc(C)c3c(C)n(-c4ccccc4)nc23)cc1 -5.04%, CC(C)CN(CCCNC(=O)CN1C(=O)CSc2ccc(S(=O)(=O)N3CCOCC3)cc21)CC(C)C -14.1%, COc1ccc(S(=O)(=O)n2ccnc2)cc1C(C)(C)C -0.0546%, COc1ccc(OC)c2sc(N3CCN(C(=O)C4CC4)CC3)nc12 0%, CCOc1ccc(NC(=O)CC2C(=O)OCCN2CC)cc1 (stereo not given) -7.28%, COc1ccccc1NC(=O)c1cnc(SCC(=O)N2CCCc3ccccc32)n(C)c1=O 3.7%, COc1ccc(N2CCN(C(=O)c3cc4ccc5cccnc5c4[nH]3)CC2)cc1 -3.38%, CSc1ccc(-c2nc3ccc(C)cn3c2Nc2ccccc2C)cc1 5.43%, Cc1cccc(-c2nnn3c2nc(NCCc2ccc(S(N)(=O)=O)cc2)c2cc(Cl)ccc23)c1 -4.88%, CS(=O)(=O)N(CC(=O)NCCc1ccccc1)c1cc(C(F)(F)F)ccc1Cl -9.67%, Cc1cccc(Oc2nc3c(c(=O)n(C)c(=O)n3C)n2C)c1 -23.2% [at 11.5 µM], O=C(NCC12CC3CC(CC(C3)C1)C2)c1cc2nc(-c3ccccc3)cc(C(F)(F)F)n2n1 -5.99%, CC(NC(=O)c1ccccc1NC(=O)c1nsc2ccccc12)c1ccccc1 (stereo not given) 12.9%, CCCCOc1ccc(C(=O)N2CCN(CCc3ccccn3)CC2)cc1 -14.4%, COc1ccc(-c2ccc(=O)n(CC(=O)Nc3ccc(C)cc3C)n2)cc1 -6.98%, COc1ccc(-c2noc(CCC(=O)NCc3ccc(C)cc3)n2)cc1 -18.2%, O=c1n(Cc2cccc(C(F)(F)F)c2)c2ccccc2c2nc(-c3ccccc3)nn12 -9.87%, Cc1ccc(-c2ccc(CCC(=O)O)n2-c2cccc(O)c2)cc1 8.87%, Cc1ccc(CNC(=O)CCCCCn2c(=O)c3sccc3n(CC(=O)N(C)c3ccccc3)c2=O)cc1 -11.6%, CCOC(=O)c1cccc(NC(=O)Cn2ncc3c4ccccc4n(Cc4ccccc4)c3c2=O)c1 -6%, CCc1ccc2oc(C(=O)Nc3cccc(C(F)(F)F)c3)cc(=O)c2c1 -0.103% [at 11.5 µM], Cc1ccc(NS(=O)(=O)c2ccc3[nH]c(=O)ccc3c2)cc1N(C)C -22.4%, Cc1cccc(Cn2c(=O)n(CCc3ccccc3)c(=O)c3c(C)c(C)sc32)c1 -5.39%, Cc1ccc(NC(=O)c2cc(C)nc3c2c(C)nn3-c2cccc(Cl)c2C)c(C)c1 -11.9%, CCn1cc(C(=O)NCc2ccccc2OC)c(=O)c2cc(S(=O)(=O)N3CCCCC3)ccc21 -3.34%, CCOC(=O)[C@@H](N)Cc1ccc(-c2cc(O[C@H](c3ccc(Cl)cc3-n3ccc(C)n3)C(F)(F)F)nc(N)n2)cc1 -7.25%, COc1ccccc1CN1COc2ccc3c(oc(=O)c4ccccc43)c2C1 -0.41%, CCn1c(=O)cc(SCC(=O)NCCc2ccc(Cl)cc2)c2ccccc21 -17%, CCOC(=O)C1CCC(CN(Cc2ccc(Cl)cc2)S(=O)(=O)c2ccc(F)c(C(=O)Nc3cccc(F)c3)c2)CC1 (stereo not given) 8.38%, COc1ccccc1Nc1cc(C(=O)NC2CCCC2)c2ccccc2n1 -26.2%, COc1ccc(/C=C/C(=O)Nc2sc3c(c2C(N)=O)CCCC3)cc1 20.8%, COc1cccc2sc(=NC(=O)c3ccc(S(=O)(=O)N4CCCCC4)cc3)n(C)c12 -5.36%, CCOC(=O)c1cnc(NCc2ccccc2OC)c2ccccc12 -24.4%, COc1ccc(S(=O)(=O)N2CCCCC2)cc1C(=O)Nc1cccc(C(F)(F)F)c1 -12.1%, CCn1c(=O)c2cc(C(=O)NCCc3cc(OC)ccc3OC)sc2c2ccccc21 -7.19%, CCCCN(CC)CCNC(=O)c1cc2c(=O)oc3ccc(C)cc3c2s1 -1.71%, Cc1ccc(-n2c(C)nc3c(cnn3-c3ccccc3C)c2=O)cc1F -11.1%, CCc1ccc2oc(-c3ccc(NC(=O)c4ccc(OC)c(Br)c4)cc3)nc2c1 45.1%, O=C(NCc1cccc(F)c1)c1ccc(-n2cnc3cccnc32)cc1 -3.22%, Cn1cc(S(=O)(=O)c2ccccc2)c(=O)c2cc(F)c(N3CCN(c4ccccc4)CC3)cc21 -16.7%, Cc1cccc(-n2c(-c3ccccc3)cn3c4c(=O)[nH]c(=O)n(C)c4nc23)c1 -2.34%, Cc1ccc(-c2cc(C(F)(F)F)n3nc(C(=O)Nc4ccc(Cl)c(C(F)(F)F)c4)cc3n2)cc1 -2.82%, Cc1cc(C)c(Cn2c3ccccc3c3cnn(CC(=O)N4CCCCCC4)c(=O)c32)c(C)c1 -13.4%, Cc1cccc(C)c1OCC(=O)Nc1nc(-c2ccc(Br)cc2)ns1 -2.56%, O=C(Cn1c(=O)n(-c2cccc(Cl)c2)c(=O)c2sc3ccccc3c21)N1CCCC1 -14.3%, CCOc1ccc(C(=O)Nc2c(C(=O)Nc3ccccc3F)oc3ccccc23)cc1OCC -16.7%, O=S1(=O)c2ccccc2N(Cc2ccccc2)c2ccccc21 -2.87%, CC(=O)c1ccc(NC(=O)c2c3c(nc4ccccc24)C(=O)N(C2CCCCC2)C3)cc1 -21.9%, CCN(CC)CCCNC(=O)C1CCN(S(=O)(=O)CC)CC1 -16.6%, COC(=O)c1cc(C)nc2c1c(=O)nc(SCc1ccccc1F)n2C1CC1 -24.3%, O=C(Nc1cccc(Br)c1)N1CCC(CN2CCCCC2)CC1 3.69%, Cc1ccc(NC(=O)CSc2nc3ncccc3[nH]2)cc1F 5.57%, COc1ccc(OCCn2cc(C(=O)C3CCCCC3)c3ccccc32)cc1 -27.6%, COc1cccc(N2CCN(C(=O)c3cnn(C(C)(C)C)c3C3CCN(C(=O)OC(C)(C)C)CC3)CC2)c1 -19.2%, O=C(NCc1ccc(Cl)cc1)C(=O)Nc1ccc(Br)cc1 -16.5% [at 11.5 µM], CCc1cccc(NC(=O)Cn2c(=O)n(Cc3ccccc3)c(=O)c3c2c2cc(OC)ccc2n3C)c1 -7.15%, CCc1ccccc1NC(=O)Cn1c(-c2nonc2N)nc2ccccc21 3.16%, COC(=O)c1c(NC(=O)CCCOc2ccc(C(C)(C)C)cc2)sc2c1CCC(C)C2 (stereo not given) -10%, CC1CCN(C(=O)CSc2nnc(-c3ccccc3Cl)o2)CC1 4.66%, COc1ccc(NC(=O)/C(C#N)=C/c2ccc(OCc3cc(=O)n4nc(C)sc4n3)cc2)cc1 -8.57%, CCN(C(=O)Cn1nc(Cc2cccnc2)c2ccccc2c1=O)c1ccccc1F -12%, OCCN1C[C@H](O)[C@@H](O)[C@H](O)[C@@H]1CO 5.34%, Cc1cccc(NC(=O)C2CCN(c3nnc(-n4c(C)ccc4C)s3)CC2)c1C -23.7%, Cc1ccc(S(=O)(=O)NCCc2cn3c(C)csc3n2)cc1 0.132%, COc1ccc(NC(=O)CCNS(=O)(=O)c2cccc3nsnc23)cc1 -20.4%

From PubChem BioAssay AID1508623 (National Center for Advancing Translational Sciences (NCATS), 2021)
